In all, about 190,000 compounds went through this assay and about 360 (0.19%) were called active. The shares of active, inactive and inconclusive entries below differ from those in the screen.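 The calls were made as follows: active = GTP binding activity at least 20 points away from 100%, either lowered or raised; inconclusive = signal likely due to the compound's own green fluorescence; inactive = the rest.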
Target: Ras-related protein Rab-2A (Canis lupus familiaris) (UniProt P61105)
Assay: Rab2 wt fluorescent GTP binding changes, either direction – biochemical, dog, bead-based flow cytometry, multiplex, primary screen (AID 760);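 also: 0% = beads with excess unlabeled GTP and 100% = no-compound control corrected for plate trend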
Conditions: GST-Rab2 wt beads, Bodipy-GTP binding, at 10 µM

Row | Structure (SMILES) | GTP binding activity
1 | Cc1ccccc1OCCn1cnc2cc([N+](=O)[O-])ccc2c1=O | inconclusive: 84%
2 | NC(=O)NOCc1ncc(C(F)(F)F)cc1Cl | inactive: 113%
3 | Cc1cc(C)n(C(=O)Cn2nc([N+](=O)[O-])cc2C)n1 | inconclusive: 92%
4 | COc1ccc2nc(NC(=O)C(NS(=O)(=O)c3cccc4nsnc34)C(C)C)sc2c1 (centres undefined) | inconclusive: 101%
5 | CCOC(=O)C(/C=C(\C#N)C(=O)OCC)=C(/N)N1CCN(c2ccccc2)CC1 | inconclusive: 100%
6 | CCCCCC(=O)Oc1cccc(N2C(=O)C3CCCCC3C2=O)c1 (centres undefined) | inactive: 101%
7 | COc1cc(/C=C/C(=O)OCC(=O)Nc2ccc(S(=O)(=O)N3CCCC3)cc2)ccc1O | inconclusive: 94%
8 | O=C(Nc1nccs1)c1ccc2c(=O)n3c(nc2c1)CCCCC3 | inactive: 103%
9 | CCC(C)(C)NC(=O)CN(Cc1ccc2c(c1)OCO2)C(=O)CCC(=O)Nc1ccccn1 | inconclusive: 101%
10 | CCN(CC)CCN1C(=O)c2ccccc2NC1c1cc(OC)c(OC)c(OC)c1 (centres undefined) | inconclusive: 110%
11 | Cc1cc(=O)[nH]c(N/N=C/c2c(C)nn(-c3ccccc3)c2C)n1 | inconclusive: 89%
12 | O=C(Nc1ccc(S(=O)(=O)N2CCCc3ccccc32)cc1)C1CCCO1 (centres undefined) | inactive: 111%
13 | O=C(Nc1cccc2ncccc12)C(c1ccccc1)c1ccccc1 | inactive: 96%
14 | Cc1ccc(S(=O)(=O)N(C)C)cc1NC(=O)COC(=O)c1ccc(Cl)cc1 | inactive: 108%
15 | O=C(CSc1nnc(SCc2ccc(Cl)cc2)s1)c1ccc2c(c1)OCO2 | inconclusive: 90%
16 | CC1(C)CC2(CC(c3ccccc3F)c3ccc(O)c(O)c3O2)NC(=S)N1 (centres undefined) | inactive: 94%
17 | O=C(O)c1c2c(nc3ccc(S(=O)(=O)N4CCC(C(=O)NC5CCCC5)CC4)cc13)CCCCC2 | inconclusive: 95%
18 | CC(C)NS(=O)(=O)c1ccc(NC(=O)NC2CCCCC2)cc1 | inactive: 101%
19 | Cc1nnc(SCc2cccc(CSc3nnc(C)s3)c2)s1 | inconclusive: 99%
20 | O=C(COn1nnc2ccc(Cl)cc21)NCc1ccccc1 | inconclusive: 38%

Row | Structure (SMILES) | GTP binding activity
21 | O=S(=O)(c1cccc(C(F)(F)F)c1)N1CCC(c2cc(-c3cccc4ccccc34)n[nH]2)CC1 | inconclusive: 98%
22 | COc1cc(C(=O)c2c(C)c(CCC#N)n3ccccc23)cc(OC)c1OC | inactive: 97%
23 | Cc1ccc(C(=O)C(OC(=O)c2cnccn2)c2ccccc2)cc1C (centres undefined) | inconclusive: 101%
24 | O=c1c2[nH]c3ccccc3c2ncn1Cc1cccnc1 | inconclusive: 102%
25 | CC(=O)OCC1=C(C(=O)O)N2C(=O)C(NC(=O)c3ccc(COc4cccc(Cl)c4Cl)o3)C2SC1 (centres undefined) | inconclusive: 89%
26 | Cc1nc2cccc(C)n2c(=O)c1Cl | inactive: 110%
27 | Cn1c(NCc2c[nH]c3ccccc23)nc2ccccc21 | inconclusive: 92%
28 | COC(=O)c1ccc(CSc2ccc3nnc(-c4ccccn4)n3n2)o1 | inconclusive: 86%
29 | COc1ccc(-n2nc3ccc(NS(C)(=O)=O)cc3n2)cc1Cl | inconclusive: 89%
30 | Cn1nc(-c2ccccc2)c(CN2CCN(c3ncccn3)CC2)c1Cl | inactive: 96%
31 | COc1cccc2c1OCC(CN1CCN(C3CCCCC3)C(CCO)C1)=C2 (centres undefined) | inactive: 100%
32 | O=C1/C(=C/c2ccc(N3CCOCC3)o2)SC(=Nc2ccccc2)N1CCc1c[nH]c2ccccc12 | inconclusive: 154%
33 | CCCCNC(=O)/C(=C/c1ccccc1)NC(C)=O | inconclusive: 102%
34 | CCCc1nc2c(nnn2Cc2ccccc2Cl)c(=O)[nH]1 | inactive: 94%
35 | CCCCCCCC(=O)N/N=C(\C)c1ccc(O)cc1O | inconclusive: 98%
36 | Cc1nnc(N2CCOCC2)c2nn(-c3cccc(Cl)c3)c(C)c12 | inconclusive: 190%
37 | O=C(COc1ccccc1[N+](=O)[O-])NCCC1=CCCCC1 | inactive: 99%
38 | CC(C)CN(CC(C)C)C(=S)Nc1ccc(Cl)cc1 | inactive: 95%
39 | COc1ccc(NC(=O)C(NC(=O)c2ccc(=O)[nH]c2)c2ccc(C)cc2)cc1 (centres undefined) | inactive: 100%
40 | C=CCn1c(SCC(=O)NC2CCCCC2)nnc1C1CCCCC1 | inconclusive: 101%

Row | Structure (SMILES) | GTP binding activity
41 | CC1=C(C(=O)N2CCOCC2)C(c2ccccc2F)C2=C(CC(C)(C)CC2=O)N1 (centres undefined) | inconclusive: 110%
42 | Cc1noc(C)c1COc1cccc(C(=O)OCCOc2ccc(F)cc2)c1 | inconclusive: 94%
43 | O=C(O)CCC(=O)c1cccc2ccccc12 | inconclusive: 104%
44 | O=C(O)CCC(=O)c1c[nH]c2ccccc12 | inconclusive: 110%
45 | O=C(CNC(=S)N(CCCN1CCOCC1)Cc1cccs1)NCCN1CCOCC1 | inconclusive: 99%
46 | CCCOc1ccc(Cc2c(Cl)nc(SC)nc2NC)cc1 | inconclusive: 90%
47 | O=C(Nc1ccc2nc3ccccc3nc2c1)c1ccccc1 | inconclusive: 87%
48 | CCOP(=O)(OCC)C(Nc1ccccn1)c1ccccc1 (centres undefined) | inconclusive: 100%
49 | CCN(CC)S(=O)(=O)c1ccc2c(c1)c(=O)c(C(=O)N1CCc3ccccc3C1)cn2C | inactive: 118%
50 | O=C1ON=C(c2cccc([N+](=O)[O-])c2)/C1=C/c1ccc(O)cc1 | inconclusive: 94%
51 | O=C(O)c1cccc(Nc2cc(Cl)c3nonc3c2[N+](=O)[O-])c1 | inconclusive: 86%
52 | CCc1cc(=O)[nH]c(SCCC(F)=C(F)F)n1 | inactive: 98%
53 | O=C(O)CC(C(=O)OC1CCCCC1)N1CCOCC1 (centres undefined) | inconclusive: 95%
54 | Cc1cc2c(cc(C(=O)OCC(=O)NCc3cccs3)n2C(C)C)o1 | inactive: 104%
55 | CCOc1ccc2nc(SCC(=O)N3c4ccccc4Sc4ccccc43)c(C#N)cc2c1 | inactive: 100%
56 | OC(CNCCc1ccc(C(F)(F)F)cc1)COc1ccc2ccccc2c1 (centres undefined) | inconclusive: 84%
57 | CC(C)(C)c1nc2scc(-c3ccc(Br)cc3)c2c(=O)o1 | inconclusive: 93%
58 | O=C(Cn1cnc2cc([N+](=O)[O-])ccc2c1=O)NCc1ccccc1 | inconclusive: 90%
59 | CC(C)C(NC(=O)CNC(=O)OC(C)(C)C)C(=O)NCc1ccccc1 (centres undefined) | inconclusive: 98%

Source: PubChem BioAssay AID760 (NMMLSC, 2007)
